Here are results for 48 cell lines from the supplement of paper PMC4967469.

Compound in the test: COc1ncc(-c2ccc3nccc(-c4ccnnc4)c3c2)cc1NS(=O)(=O)c1ccc(F)cc1F [GSK2126458]
As to the kind of experiment: Viability of human cancer cell lines after 72 h of drug (GDSC screen). The following applies: top dose inferred. The procedure: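 Human cancer cell lines in 384-well plates, medium with 10% serum, drug for 72 h over a 256-fold dose range (nine 2-fold or five 4-fold steps up to the top dose). Adherent lines were fixed and stained with the nucleic acid dye Syto60, suspension lines read with resazurin; signal relative to control wells, capped at 0 and 100%. One two-parameter sigmoid per drug and line, fitted in a mixed model over all curves with the slope shared within a line.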

pIC50: −log10 of the molar value. Lines with a small IC50 respond at low doses; a fit beyond the top or the lowest dose is shown as a bound at that dose. The AUC spans the tested range (256-fold, ending at the top dose) of the same fit; values near 1 show little effect. Any top dose called inferred is not printed in the source and was worked back from the curve model.

By pIC50 is commonly meant the negative decadic logarithm of the IC50, by convention in mol/L. For the cell line “MDA-MB-468 (breast, adherent, top dose 0.128 µM)”, the AUC was found to be 0.663 and the negative-log IC50 (pIC50) is 7.65.
On to “MDST8 (large intestine, adherent, top dose 0.128 µM)”, for which the AUC worked out at 0.731 and the negative logarithm of the IC50 (pIC50) is 7.44.
Take “ME-1 (acute myeloid leukaemia, suspension, top dose 0.128 µM)”: the AUC turned out to be 0.908 and the pIC50 was below 6.89.
In the case of “ME-180 (cervix, adherent, top dose 0.128 µM)”, the AUC stood at 0.464 and the pIC50 is 8.20.
With “MEG-01 (chronic myeloid leukaemia, suspension, top dose 0.128 µM)”, the AUC turned out to be 0.833 and the pIC50 is 7.12.
“MEL-JUSO (melanoma, adherent, top dose 0.128 µM)”: the AUC is 0.641 and the pIC50 was 7.69.
On the same counts, the results for “MES-SA (uterus, adherent, top dose 0.128 µM)” are 0.904 and 6.90.
“MFE-280 (endometrium, adherent, top dose 0.128 µM)”: the AUC amounted to 0.73 and the pIC50 is 7.36.
For “MFE-296 (endometrium, adherent, top dose 0.128 µM)”, the AUC worked out at 0.783 and the negative-log IC50 (pIC50) is 7.24.
For “MFE-319 (endometrium, adherent, top dose 0.128 µM)”, the AUC amounted to 0.674 and the pIC50 is 7.62.
In the same order, the values of “MFH-ino (soft tissue, adherent, top dose 0.128 µM)” are 0.839 and 6.96.
On to “MFM-223 (breast, adherent, top dose 0.128 µM)”, for which the AUC came out at 0.885 and the negative-log IC50 (pIC50) was below 6.89.
As to “MG-63 (osteosarcoma, adherent, top dose 0.128 µM)”, the AUC was determined as 0.983 and the pIC50 was below 6.89.
For the cell line “MHH-ES-1 (Ewing sarcoma, adherent, top dose 0.128 µM)”, the AUC was 0.329 and the negative-log IC50 (pIC50) was 8.57.
On the same counts, the results for “MHH-NB-11 (neuroblastoma, adherent, top dose 0.128 µM)” are 0.824 and 7.06.
As for “MHH-PREB-1 (B-cell leukaemia, suspension, top dose 0.128 µM)”, the AUC was 0.637 and the negative logarithm of the IC50 (pIC50) is 7.74.
Turning to “MIA-PaCa-2 (pancreas, adherent, top dose 0.128 µM)”, the AUC is 0.972 and the negative-log IC50 (pIC50) was below 6.89.
In the same order, the values of “MKN1 (stomach, adherent, top dose 0.128 µM)” are 0.736 and 7.41.
In the case of “MKN28 (stomach, adherent, top dose 0.128 µM)”, the AUC was 0.925 and the negative-log IC50 (pIC50) is below 6.89.
As to “MKN45 (stomach, adherent, top dose 0.128 µM)”, the AUC is 0.815 and the pIC50 is 7.02.
In the same order, the values of “ML-1 (thyroid, adherent, top dose 0.128 µM)” are 0.848 and 6.92.
On to “ML-2 (acute myeloid leukaemia, suspension, top dose 0.128 µM)”, for which the AUC was found to be 0.185 and the pIC50 is 8.98.
Take “MLMA (hairy cell leukaemia, semi-adherent, top dose 0.128 µM)”: the AUC was 0.282 and the pIC50 is 8.72.
“MMAC-SF (melanoma, adherent, top dose 0.128 µM)”: the AUC worked out at 0.79 and the negative logarithm of the IC50 (pIC50) was 7.22.
In the same order, the values of “MN-60 (B-cell leukaemia, suspension, top dose 0.128 µM)” are 0.407 and 8.36.
Consider “MOG-G-CCM (glioma, adherent, top dose 0.128 µM)”, for which the AUC came out at 0.619 and the negative-log IC50 (pIC50) was 7.74.
On the same counts, the results for “MOG-G-UVW (glioma, adherent, top dose 0.128 µM)” are 0.68 and 7.60.
In the case of “MOLM-13 (acute myeloid leukaemia, suspension, top dose 0.128 µM)”, the AUC was 0.288 and the pIC50 was 8.68.
On the same counts, the results for “MOLP-8 (myeloma, suspension, top dose 0.128 µM)” are 0.201 and 8.96.
With “MOLT-4 (lymphoblastic leukaemia, suspension, top dose 1.024 µM)”, the AUC stood at 0.168 and the negative-log IC50 (pIC50) was 8.08.
With “MOLT-13 (T-cell lymphoblastic leukaemia, suspension, top dose 0.128 µM)”, the AUC worked out at 0.91 and the pIC50 is below 6.89.
Regarding “MONO-MAC-6 (acute myeloid leukaemia, suspension, top dose 0.128 µM)”, the AUC was determined as 0.44 and the pIC50 was 8.27.
With “MPP-89 (mesothelioma, adherent, top dose 0.128 µM)”, the AUC was determined as 0.925 and the negative-log IC50 (pIC50) is below 6.89.
As for “MRK-nu-1 (breast, suspension, top dose 0.128 µM)”, the AUC was 0.839 and the negative logarithm of the IC50 (pIC50) was 7.11.
“MS751 (cervix, adherent, top dose 0.128 µM)”: the AUC was found to be 0.973 and the negative logarithm of the IC50 (pIC50) is below 6.89.
As to “MS-1 (small cell lung carcinoma, suspension, top dose 0.128 µM)”, the AUC stood at 0.588 and the pIC50 is 7.87.
For the cell line “MSTO-211H (mesothelioma, adherent, top dose 0.128 µM)”, the AUC is 0.962 and the negative logarithm of the IC50 (pIC50) was below 6.89.
On the same counts, the results for “MY-M12 (leukaemia, suspension, top dose 0.128 µM)” are 0.808 and 7.12.
Take “MZ1-PC (pancreas, adherent, top dose 0.128 µM)”: the AUC was 0.398 and the pIC50 was 8.41.
In the same order, the values of “MZ2-MEL (melanoma, adherent, top dose 0.128 µM)” are 0.473 and 8.18.
Regarding “MZ7-mel (melanoma, adherent, top dose 0.128 µM)”, the AUC was 0.626 and the negative logarithm of the IC50 (pIC50) was 7.74.
In the case of “Mewo (melanoma, adherent, top dose 0.128 µM)”, the AUC came out at 0.891 and the pIC50 is below 6.89.
In the same order, the values of “Mo-T (hairy cell leukaemia, suspension, top dose 0.128 µM)” are 0.719 and 7.47.
On to “NALM-6 (B-cell leukaemia, suspension, top dose 0.128 µM)”, for which the AUC turned out to be 0.146 and the pIC50 is 9.08.
Turning to “NAMALWA (Burkitt lymphoma, suspension, top dose 0.128 µM)”, the AUC stood at 0.296 and the pIC50 is 8.62.
With “NB1 (neuroblastoma, semi-adherent, top dose 0.128 µM)”, the AUC came out at 0.917 and the pIC50 is below 6.89.
Take “NB5 (neuroblastoma, adherent, top dose 0.128 µM)”: the AUC was determined as 0.789 and the pIC50 is 7.24.
Take “NB6 (neuroblastoma, adherent, top dose 0.128 µM)”: the AUC was 0.672 and the negative-log IC50 (pIC50) was 7.57.
